In article PMC4336329 (PLoS ONE, 2015):
About 2,200 (0.71%) of roughly 310,000 compounds showed an effect of 50% or more. The effect is printed as a negative number. Some of the results follow.

Target: human ether-à-go-go-related gene (hERG) potassium channel (human, UniProt Q12809)
Experiment: primary screen, population patch clamp on CHO cells stably expressing hERG

Sequence of human ether-à-go-go-related gene (hERG) potassium channel (Q12809 whole entry, looked up): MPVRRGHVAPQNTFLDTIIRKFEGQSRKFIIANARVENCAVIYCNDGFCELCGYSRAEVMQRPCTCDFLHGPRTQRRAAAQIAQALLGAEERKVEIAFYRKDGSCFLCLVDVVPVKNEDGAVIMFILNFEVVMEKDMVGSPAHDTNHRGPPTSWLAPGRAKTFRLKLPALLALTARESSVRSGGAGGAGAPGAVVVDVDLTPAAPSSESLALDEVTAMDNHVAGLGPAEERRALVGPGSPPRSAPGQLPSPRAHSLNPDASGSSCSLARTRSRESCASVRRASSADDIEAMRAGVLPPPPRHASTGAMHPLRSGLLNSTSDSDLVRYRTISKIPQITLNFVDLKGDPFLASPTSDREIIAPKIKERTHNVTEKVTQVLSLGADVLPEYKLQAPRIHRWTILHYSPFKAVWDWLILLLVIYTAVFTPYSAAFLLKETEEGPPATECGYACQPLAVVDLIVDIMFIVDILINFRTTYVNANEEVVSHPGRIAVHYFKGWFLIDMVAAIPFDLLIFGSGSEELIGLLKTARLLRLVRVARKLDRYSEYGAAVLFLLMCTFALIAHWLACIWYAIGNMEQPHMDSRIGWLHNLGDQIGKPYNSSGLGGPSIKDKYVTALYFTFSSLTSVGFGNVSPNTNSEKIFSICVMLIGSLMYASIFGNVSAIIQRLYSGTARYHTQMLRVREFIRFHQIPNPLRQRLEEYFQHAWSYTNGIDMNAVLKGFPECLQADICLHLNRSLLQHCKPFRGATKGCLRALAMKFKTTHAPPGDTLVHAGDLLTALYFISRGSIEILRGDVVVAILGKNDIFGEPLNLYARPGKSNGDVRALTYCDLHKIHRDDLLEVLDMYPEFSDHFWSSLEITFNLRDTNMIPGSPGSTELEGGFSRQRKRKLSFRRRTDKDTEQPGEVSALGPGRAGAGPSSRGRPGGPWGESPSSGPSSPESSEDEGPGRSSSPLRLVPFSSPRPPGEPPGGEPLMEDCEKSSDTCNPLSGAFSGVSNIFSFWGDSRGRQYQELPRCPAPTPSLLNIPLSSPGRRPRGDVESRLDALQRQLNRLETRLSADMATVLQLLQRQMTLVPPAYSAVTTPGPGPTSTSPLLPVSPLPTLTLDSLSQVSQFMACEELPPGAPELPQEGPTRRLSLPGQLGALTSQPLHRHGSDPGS

Point of comparison: `COC(=O)C1=C(C)Nc2[nH]c(=S)[nH]c(=O)c2C1c1ccc(O)cc1` (stereo not shown), “hERG current change (%, negative = inhibition) at 1uM” value 12.5%. Against it:
- O=C(NC1CC2CCCC(C1)N2S(=O)(=O)c1ccccc1)C1CCCCC1 (stereo not shown) — lower, 0.641%
- C=CCNC(=S)/N=c1/ccccn1Cc1ccccc1 — higher, 13.8%
- CCn1c(C)cc(/C=C2/NC(=O)N(Cc3ccccc3F)C2=O)c1C — lower, 12.1%
- Cn1c(=O)cc(OCC(=O)N2CCN(c3cccc(C(F)(F)F)c3)CC2)c2ccccc21 — lower, 6.38%
- COc1ccc(CN(CC(=O)NCCc2ccccc2)C(=O)CCC(=O)Nc2cc(C)ccn2)cc1 — lower, -2.12%
- Cc1ccc(SCC(=O)n2nc(C)cc2C)cc1 — higher, 13.6%
- C[C@H]1CN(Cc2ccccc2)C(=O)[C@@H]1CC(=O)NCc1ccccc1 — lower, 8.69%
- COc1ccc(OC)c(NS(=O)(=O)c2ccc(Br)s2)c1 — lower, 12.4%
- O=C(NNC(=O)C(O)c1ccccc1)NC1CCCCC1 (stereo not shown) — higher, 17.8%
- Cc1ccsc1/C=N/Nc1nc(Cl)c(Cl)cc1Cl — lower, 8.9%
- COCCN(C(=S)Nc1ccccc1C)C(C)c1cccs1 (stereo not shown) — lower, 2.07%
- COc1cccc(CNS(=O)(=O)c2ccc(-n3cnnn3)c(C)c2)c1 — lower, 3.48%
- COc1ccc(-n2c(=O)[nH]cc(C(=O)N3CCCc4ccccc43)c2=O)cc1 — lower, 5.42%
- O=C(Nc1ccccc1)c1ccc(=O)[nH]n1 — lower, 12.2%
- COc1cccc(NC(=O)CCC2CCN(C(=O)c3cccc(NC(C)=O)c3)CC2)c1 — lower, 1.88%
- Cc1c(Cl)cccc1NC(=O)Nc1ccc(C(=O)N2CCCC2)cc1 — lower, 1.01%
- COc1cccc(CC(=O)OCC(=O)NC(=O)c2ccc(OC(F)F)cc2)c1 — lower, 7.13%
- CCOC(=O)c1ccc(NC(=O)c2ccc(NS(C)(=O)=O)cc2)cc1 — lower, 1.06%
- COc1ccc(NC(=O)CN(C)C(=O)Cc2ccc(-c3ccccc3)cc2)cc1 — lower, 7.26%
- Cc1cccc(C)c1OCC(O)Cn1c2ccccc2c2ccccc21 (stereo not shown) — lower, -1.28%
- C=CCOC(=O)C1=C(C)NC(=O)NC1c1ccc(OC(=O)c2ccco2)c(OC)c1 (stereo not shown) — lower, 7.21%
- COc1cc(OC)c(OC)cc1/C=C1\CC(C)C/C(=C\c2cc(OC)c(OC)cc2OC)C1=O (stereo not shown) — lower, 8.41%
- CC(C)CN(C(=O)CN(C)C(=O)Cc1ccccc1Cl)c1c(N)n(CC(C)C)c(=O)[nH]c1=O — higher, 12.6%
- COc1ccccc1NC(=O)c1cnc(SC)nc1 — higher, 20.8%
- COC(=O)N/N=C\c1c(C)nn(-c2ccccc2)c1Cl — lower, 2.26%
- Cc1ccc2nc(SCC(=O)NCc3ccco3)nc(=O)n2c1 — lower, 11.3%
- CNC(=S)N1N=C(c2ccccc2)CC1c1ccccc1Cl (stereo not shown) — lower, -0.326%
- CCOC(=O)/C=C/c1ccc2c(c1)S(=O)(=O)N(c1cccc(OC)c1)[C@H]2CC(=O)OCC — lower, 4.72%
- COc1cccc(CNC(=O)COc2cc3c(c4oc(=O)cc(C)c24)CCC(C)(C)O3)c1 — lower, 7.83%
- C(=N\c1nc2ccccc2n1Cc1ccccc1)/c1cccs1 — lower, 9.2%
- O=C(NCc1ccco1)c1sc(=S)n2c1[nH]c(=O)c1ccccc12 — lower, -4.07%
- O=C(O)C1=C[C@@H](c2ccc(Br)cc2)C[C@@H](OCc2ccc(CO)cc2)O1 — lower, 8.37%
- COCCn1c(C)cc(C(=O)CSc2nc3ccccc3s2)c1C — lower, 6.88%
- Cc1ccc(NC2CCCN(C(=O)CCCN3CCCCC3=O)C2)cc1C (stereo not shown) — higher, 13.1%
- CC(C)CN(C(=O)c1ccc(S(=O)(=O)N2CCOCC2)cc1)C1CCS(=O)(=O)C1 (stereo not shown) — lower, 10.8%
- Fc1ccc(NC(=S)N2CCOCC2)cc1Cl — higher, 16.5%
- CC(C(=O)N(C)C)N(C#N)c1nc(N(C)C)nc(N(C)C)n1 (stereo not shown) — lower, 0.182%
- Cc1cc(NC(=O)CSc2nc3ccccc3c(=O)n2CCCC(=O)NCc2ccccc2)n[nH]1 — lower, -0.078%
- COc1cc(/C=C(\C#N)C(=O)Nc2cccc(C(=O)O)c2)ccc1OCc1ccc(F)cc1 — lower, 9.03%
- Cc1cccc(NC(=S)NNC(=O)CC(C)O)c1C (stereo not shown) — lower, 10.2%
- CCOC(=O)N1CCN(Cc2nc(-c3ccc(OC)cc3)no2)CC1 — lower, -3.72%
- COC(=O)C1CCN(C(=O)COC(=O)c2ccc3[nH]c4c(c3c2)CCCC4)CC1 — lower, 8%
